Measurements from article PMC2902519, “Impairment of Protein Trafficking upon Overexpression and Mutation of Optineurin” (PLoS ONE, 2010).
These are yes or no findings as the source states them, for the method shown. Binding seen in cells or lysates may run through a third protein. Some results given as binding are weak or reduced against the parent protein; the word gives no strength.

Protein sequences, listed by entry. Tags and fused reporters are not part of them. Lines headed by an entry give the natural chain unless they say otherwise; changes in a name come on top.
UniProt Q96CV9: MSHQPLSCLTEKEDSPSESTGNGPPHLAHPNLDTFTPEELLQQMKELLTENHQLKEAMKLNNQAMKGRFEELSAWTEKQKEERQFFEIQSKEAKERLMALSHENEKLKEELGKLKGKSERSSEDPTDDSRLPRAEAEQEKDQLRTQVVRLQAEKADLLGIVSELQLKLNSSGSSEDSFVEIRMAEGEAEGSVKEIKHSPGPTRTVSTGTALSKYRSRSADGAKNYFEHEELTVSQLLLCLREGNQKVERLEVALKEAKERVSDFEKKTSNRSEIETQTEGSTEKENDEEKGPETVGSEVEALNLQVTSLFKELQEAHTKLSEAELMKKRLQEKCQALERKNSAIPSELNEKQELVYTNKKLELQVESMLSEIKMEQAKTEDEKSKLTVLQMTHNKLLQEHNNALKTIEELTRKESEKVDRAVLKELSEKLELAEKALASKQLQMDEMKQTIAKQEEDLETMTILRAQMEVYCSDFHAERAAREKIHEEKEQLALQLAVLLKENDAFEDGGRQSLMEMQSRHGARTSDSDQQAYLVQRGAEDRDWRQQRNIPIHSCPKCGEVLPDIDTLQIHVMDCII
UniProt P20339: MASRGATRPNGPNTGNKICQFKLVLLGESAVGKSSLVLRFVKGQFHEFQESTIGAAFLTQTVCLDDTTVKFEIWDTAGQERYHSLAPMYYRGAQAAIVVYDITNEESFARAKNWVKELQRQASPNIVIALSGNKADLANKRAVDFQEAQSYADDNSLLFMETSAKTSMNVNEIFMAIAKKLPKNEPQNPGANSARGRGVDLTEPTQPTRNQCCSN
UniProt Q99376: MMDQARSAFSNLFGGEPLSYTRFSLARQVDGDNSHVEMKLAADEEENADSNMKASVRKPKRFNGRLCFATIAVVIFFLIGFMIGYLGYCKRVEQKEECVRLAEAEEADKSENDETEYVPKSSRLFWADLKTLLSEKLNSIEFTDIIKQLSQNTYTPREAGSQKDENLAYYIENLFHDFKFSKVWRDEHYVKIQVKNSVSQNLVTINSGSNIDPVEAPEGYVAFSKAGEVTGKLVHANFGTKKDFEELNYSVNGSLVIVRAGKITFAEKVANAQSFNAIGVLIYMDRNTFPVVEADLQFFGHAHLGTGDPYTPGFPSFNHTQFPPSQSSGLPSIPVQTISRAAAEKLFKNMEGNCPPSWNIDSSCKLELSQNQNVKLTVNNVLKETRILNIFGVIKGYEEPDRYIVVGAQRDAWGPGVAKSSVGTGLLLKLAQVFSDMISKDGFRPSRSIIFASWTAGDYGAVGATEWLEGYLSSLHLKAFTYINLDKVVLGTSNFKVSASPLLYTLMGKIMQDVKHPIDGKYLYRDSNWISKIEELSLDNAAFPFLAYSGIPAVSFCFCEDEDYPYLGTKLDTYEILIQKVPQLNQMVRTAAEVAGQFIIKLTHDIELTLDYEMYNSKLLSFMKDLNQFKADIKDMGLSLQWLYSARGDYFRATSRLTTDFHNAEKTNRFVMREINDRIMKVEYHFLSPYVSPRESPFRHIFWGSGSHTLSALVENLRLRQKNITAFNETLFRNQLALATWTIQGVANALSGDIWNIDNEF
UniProt P62491: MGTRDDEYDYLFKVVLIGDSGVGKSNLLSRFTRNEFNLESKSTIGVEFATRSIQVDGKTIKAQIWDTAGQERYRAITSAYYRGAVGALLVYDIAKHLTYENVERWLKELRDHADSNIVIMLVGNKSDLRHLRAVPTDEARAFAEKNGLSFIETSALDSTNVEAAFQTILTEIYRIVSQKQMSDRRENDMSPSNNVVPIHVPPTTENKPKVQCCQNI
UniProt P51149: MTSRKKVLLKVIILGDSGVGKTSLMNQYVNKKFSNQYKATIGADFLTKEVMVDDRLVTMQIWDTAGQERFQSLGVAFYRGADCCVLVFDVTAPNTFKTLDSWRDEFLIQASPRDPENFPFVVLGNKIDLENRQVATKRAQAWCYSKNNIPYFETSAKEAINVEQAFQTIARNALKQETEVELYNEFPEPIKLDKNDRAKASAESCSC

Key:
[1] = molecular target: FLAG-tagged wild type optineurin (FLAG-OPTNWT) (human) (UniProt Q96CV9); experiment: co-IP; RPE cells co-transfected with pTarget-FLAG-OPTN and pEGFP-N1 or pGFP-Rab8, -Rab4, -Rab5, -Rab11 or -Rab7; lysate in IP buffer (50 mM Tris-HCl pH 7.5, 150 mM NaCl, 1% Nonidet P40, 0.5% sodium deoxycholate) precipitated with rabbit polyclonal anti-optineurin; eluates blotted with anti-FLAG and anti-GFP
[2] = molecular target: wild type optineurin-green fluorescence protein (OPTNWT-GFP) (human) (UniProt Q96CV9); experiment: co-IP; Tet-on inducible RGC5 cells, doxycycline 1 ug/ml 16 h, expressing OPTNWT-, OPTN_(E50K)- or OPTN_(L157A)-GFP; lysate precipitated with polyclonal anti-GFP; eluates blotted with monoclonal anti-Rab8 or anti-TfR and anti-GFP; band intensity ratio relative to wild type
[3] = molecular target: FLAG-tagged E50K optineurin (FLAG-OPTN E50K) (human) (UniProt Q96CV9); experiment: co-IP; RPE cells co-transfected 16 h with OPTN-His and FLAG-OPTN of the same variant (WT, E50K or L157A); lysate precipitated with polyclonal anti-His; eluates blotted with monoclonal anti-FLAG and anti-His
[4] = molecular target: FLAG-tagged L157A optineurin (FLAG-OPTN L157A) (human) (UniProt Q96CV9); experiment: as above

| Substance | binding [1] | also measured |
| --- | --- | --- |
| GFP-Rab5 (from UniProt P20339 1-215) | no binding |  |
| endogenous transferrin receptor (TfR) of RGC5 cells (from UniProt Q99376 1-761) |  | binding [2]: binds |
| FLAG-tagged E50K optineurin (FLAG-OPTN E50K) (from UniProt Q96CV9 1-577) |  | binding [3]: binds |
| FLAG-tagged L157A optineurin (FLAG-OPTN L157A) (from UniProt Q96CV9 1-577) |  | binding [4]: binds |
| GFP-Rab11 (from UniProt P62491 1-216) | no binding |  |
| GFP-Rab7 (from UniProt P51149 1-207) | no binding |  |
